Laboratory results reported in PubChem BioAssay AID1347073 (National Center for Advancing Translational Sciences (NCATS), 2019).
About 200 (0.44%) of roughly 45,000 compounds were called active. Inconclusive results (about 7%) are left out. The call rests on the fitted dose curve; in most records, active means well fitted activation curve with a large enough effect; inconclusive means small, poorly fitted or top-dose-only effect; inactive means no such curve, though single readings can be large or run the other way. Some of the results follow.

Assay: qHTS of TDP-43 Inhibitors: NCGC Sytravon Library Screen; further: 0% is about no effect; nearly all actives have a fitted effect of over 55% in size
Conditions: yeast TDP-43 toxicity rescue, BacTiter-Glo growth, 24 h; series mostly up to 46.1 µM; growth rescue (activation): at the top concentration
How it was run: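 TDP-43-expressing yeast, pregrown in raffinose, seeded at OD600 0.02 in galactose medium with compound for 24 hr at 30 deg C. Growth read by BacTiter-Glo luminescence, so rescue of toxicity appears as activation.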

| Structure (SMILES) | growth rescue (activation) |
| --- | --- |
| COc1ccc2[nH]cc(CCN3C(=O)c4ccc(C(=O)O)cc4C3=O)c2c1 | inactive: -6.18% |
| CC(C)C(=O)Nc1nnc(SCC(=O)NC2CCCC2)s1 | inactive: -6.37% |
| Cc1ccc(OCC(=O)N/N=C\c2cccn2C)c([N+](=O)[O-])c1 | inactive: 1.59% |
| N#CCCN(C(=O)COC(=O)c1ccc2c(c1)OCCO2)c1ccccc1 | inactive: 3.41% |
| O=C(OCc1ccccc1)C1=NNC2C(=O)N(Cc3ccccc3)C(=O)C12 (centres undefined) | inactive: 6.22% |
| Cc1cccc(C(=O)Nc2ccc(O)cc2C(=O)O)c1 | inactive: 1.36% |
| CS(=O)(=O)c1ccc(S(=O)CC(=O)Oc2ccc(Cl)cc2)c([N+](=O)[O-])c1 (centres undefined) | inactive: -5.87% |
| Cc1ccc(S(=O)(=O)Nc2c(C)nc3nc(C)[nH]n3c2=O)cc1 | inactive: -20.7% |
| O=C(COC(=O)CCC(=O)c1ccc(Cl)cc1)NCc1ccco1 | inactive: 1.43% |
| COc1ccc(CCN(C)C(=O)C2CCCN(Cc3ccc(OC)c(OC)c3)C2)cc1OC (centres undefined) | inactive: -9% |
| N#C/C(=N\Nc1cccc(F)c1)C(=N)N1CCCCCC1 | inactive: 9.43% |
| CC(C)(C)n1nc2c(c1NC(=O)c1cccs1)CS(=O)C2 (centres undefined) | inactive: 37.3% |
| O=C(CN1CCN(c2ccccc2F)CC1)NC(=O)NC1CCCCC1 | inactive: 5.65% |
| Cc1cc(C(=O)O)ccc1-c1ccc(CO)o1 | inactive: 6.35% |
| CCCCOCCCNC(=O)c1ccc([N+](=O)[O-])c(C)c1 | inactive: 22.8% |
| O=C(Cc1ccc(F)cc1)N/N=C/c1ccc(-c2ccc(Cl)c(C(=O)O)c2)o1 | inactive: -7.09% |
| Cc1ccc(NS(=O)(=O)c2ccc(N/N=C/c3ccncc3)c([N+](=O)[O-])c2)c(C)c1 | inactive: -16.6% |
| Cc1ccc2c(C)nc(SC(C(=O)c3ccccc3)c3ccccc3)nc2c1 (centres undefined) | inactive: 9.4% |
| CCOc1cc(C=C(C(=O)OC)C(=O)OC)ccc1OCc1ccc([N+](=O)[O-])cc1 | inactive: -10.7% |
| COc1ccc(Nc2nc(N)nc(CN3CCN(c4ccc(F)cc4)CC3)n2)cc1 | inactive: -3.36% |
| COC(=O)c1nc2n(n1)C(c1ccccc1OC)C1=C(CCCC1=O)N2 (centres undefined) | inactive: 0.682% |
| O=C1C=C(Nc2ccccc2)c2ccccc2C1=O | inactive: 2.17% |
| O=C(CN1C(=O)CCC1=O)Nc1nc(-c2cccs2)cs1 | inactive: -11.1% |

| Structure (SMILES) | growth rescue (activation) |
| --- | --- |
| O=C(Nc1ccncc1)c1ccc(C(=O)Nc2ccncc2)cc1 | inactive: 11.4% |
| O=C(O)CCCNC(=O)c1ccccn1 | inactive: -4.43% |
| CC1CCN(C(=O)c2cc(-c3ccco3)on2)CC1 | inactive: 12.1% |
| Cc1cc(NC(=O)CSc2nc(C)c(C)n2CC(C)C)no1 | inactive: -10.6% |
| O=C(COc1ccc(F)cc1)NCCCn1ccnc1 | inactive: 14.7% |
| CCn1c(CNC(=O)Cc2ccc(OC)cc2)n[nH]c1=S | inactive: 4.75% |
| CC(=O)Nc1cccc(NC(=O)COc2ccc3c(c2)OCO3)c1 | inactive: -17.2% |
| CC(=O)Nc1cccc(NC(=S)Nc2ccc(F)cc2F)c1 | inactive: 9.86% |
| Cn1cccc1C1C(C#N)=C(N)OC2=C1C(=O)CCC2 (centres undefined) | inactive: -0.225% |
| CCC1CCCCN1S(=O)(=O)c1ccc(NC(=O)c2nc(S(C)(=O)=O)ncc2Cl)cc1 (centres undefined) | inactive: 22.6% |
| Cc1ccc(NC(=S)NC(=O)/C=C/c2ccc(Cl)cc2)cc1 | inactive: 13% |
| COc1ccccc1Oc1ccc(NC(=O)c2ccccc2)cc1 | inactive: 10.2% |
| CC(=O)Nc1ccc(S(=O)(=O)N2CCN(C(=O)c3ncoc3-c3ccc(F)cc3)CC2)cc1 | inactive: 6.27% |
| Brc1ccc(-c2noc(C3CCCCC3)n2)cc1 | inactive: 2.63% |
| CSc1ccc(CN2CCC(C)(Oc3ccc(CC#N)cc3)C2)cc1 (centres undefined) | inactive: 7.75% |
| CCOc1ccccc1/C=C/c1cc(C(=O)O)c2ccccc2n1 | inactive: -0.444% |
| Cc1ccc(NC(=O)Cc2sc(C)nc2-c2ccc(C)cc2)cc1 | inactive: -12.4% |
| O=C(CCN1C(=O)c2ccccc2C1=O)Nc1ccc(-c2nc3ccccc3s2)cc1 | inactive: 3.07% |
| O=C(CN(Cc1ccc(F)cc1)C(=O)CCC(=O)Nc1ccccn1)NCc1ccc(F)cc1 | inactive: 0.429% |
| COc1ccc(NC(=O)C2=C(C)NC(=S)NC2c2ccc(O)c(OC)c2)cc1 (centres undefined) | inactive: -0.0271% |
| Cc1cc(C)cc(OCCNC(=O)C(C)N2C(=O)c3ccccc3C2=O)c1 (centres undefined) | inactive: 3.38% |
| O=C(NN=C1CCCC1)c1ccn[nH]1 | inactive: -5.76% |
| CC(C)(CSc1ncccn1)NS(=O)(=O)c1ccccc1 | inactive: -3% |

| Structure (SMILES) | growth rescue (activation) |
| --- | --- |
| Cc1ccc(-c2cc(C(=O)Nc3ccc(S(=O)(=O)N4CC(C)OC(C)C4)cc3)[nH]n2)c(O)c1 (centres undefined) | inactive: 10.7% |
| COc1ccc(C2(C)NC(=O)N(CC(=O)Nc3ccc(-c4nc5ccc(C)cc5s4)cc3)C2=O)cc1 (centres undefined) | inactive: -16% |
| Cc1ccccc1OCC(=O)Nc1ccc(N2CCN(C)CC2)c(Cl)c1 | inactive: 7.2% |
| CC1(NC(=S)Nc2ccc3ccccc3c2)CCS(=O)(=O)C1 (centres undefined) | inactive: 14.9% |
| CC12C(=O)N(c3ccc(OC(=O)c4ccco4)cc3)C(=O)C1C1c3ccccc3C2c2ccccc21 (centres undefined) | inactive: 6.74% |
| COc1ccc(NC(=O)c2ccc3nc[nH]c3c2)c(OC)c1 | inactive: 3.98% |
| COCCn1c(-c2ccc(OC)cc2)cnc1SCC(=O)Nc1ccc(OC)cc1OC | inactive: -2.89% |
| O=C(CCc1ccccc1)Nc1cc(S(=O)(=O)N2CCOCC2)ccc1N1CCCC1 | inactive: -10.2% |
| COc1ccc(OC)c(NC(=O)C2Cc3ccccc3CN2S(=O)(=O)c2ccc(F)cc2)c1 (centres undefined) | inactive: 26.8% |
| COc1ccc(N2CCN(c3ccc(C(N)=O)cc3[N+](=O)[O-])CC2)cc1 | inactive: 11.5% |
| Cc1ccc(N(Cc2cc3cc(C)ccc3[nH]c2=O)S(=O)(=O)c2ccccc2)cc1 | inactive: -29.2% |
| CC(NC(=O)c1ccccc1)C(=O)N/N=C/c1ccco1 (centres undefined) | inactive: -7.42% |
| CCOC(=O)C1CCCN(C(=O)c2cc(-c3ccc(F)cc3)nc3ccccc23)C1 (centres undefined) | inactive: -9.73% |
| CC(=O)N(c1ccccc1)c1nc(/C=C/C(=O)O)cs1 | inactive: 1.08% |
| COc1ccc(/C=C/C(=O)NCCC(=O)N2CCCN(C)CC2)cc1 | inactive: 11.5% |
| Oc1ccccc1CNc1ccc2c(c1)OCCO2 | inactive: 1.38% |
| CC(=O)N1CCN(C2c3cccc4cccc(c34)C2NS(=O)(=O)c2ccccc2)CC1 (centres undefined) | inactive: 7.35% |
| Cc1ccc(-c2[nH]ncc2CN2CCN(C(=O)c3cccs3)CC2)cc1C | inactive: -1.04% |
| Cc1ccccc1-c1nnc(SCC(=O)Nc2cccnc2Cl)o1 | inactive: 2.11% |
| O=C(Cc1ccccc1)NCC(=O)N1CCC1 | inactive: -18.3% |
| COc1ccc(C(=O)O)cc1S(=O)(=O)NCc1ccncc1 | inactive: -3.1% |
| CC(C)c1onc(C(=O)Nc2cccc(O)c2)c1[N+](=O)[O-] | inactive: 6.69% |
| COc1ccc(N(CC(=O)Nc2c(C)n(C)n(-c3ccccc3)c2=O)S(=O)(=O)c2ccc(C)cc2)cc1OC | inactive: 1.11% |
